# Measurements reported in the supplement of paper PMC11417369.
# ± gives the standard deviation of the averaged measurements. The list shows a part of the results.
# Test system: PfAP2-EXP AP2 domain (GST-tagged)
# Experiment: gcPBM binding intensity (ln(normalized median fluorescence intensity)); higher = stronger DNA binding
# Method in brief: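 An Agilent 4 × 180k array of primer-extended double-stranded 36-bp intergenic genomic probes, with negative controls, was incubated for 1 h with GST-tagged P. falciparum DNA-binding domains expressed in E. coli. Alexa488 anti-GST antibody detected bound protein, scanned at 488 nm. Binding intensity is the highest Masliner-normalised natural-log median intensity across replicate spots of either probe orientation.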
row,Sequence,gcPBM binding intensity (ln)
1,ATTTATTTATATACAAGTACATAAAAAATTAACTTA [XGTACX_site6170],8.065 ± 0.007
2,TAAAAATTAAAATGTTGTACAATGATAAAATATTAT [XGTACX_site7874],8.71 ± 0.26
3,AAATTATAAAATAACTGTACCAATCCTTTTTTTTTA [XGTACX_site2229],8.16 ± 0.42
4,CTCAACATATACGTAACACACATATAAATATAAATA [CACACA_site7749],8.56 ± 0.56
5,TAAATTGAAATATATTGTACATTATCAACTAAGGGA [XGTACX_site1635],8.49 ± 0.42
6,ATATGTACATATCTCATGCACTTAACAAAAAAAAAG [GTGCAC_site9898],8.71 ± 0.29
7,TAAAGAGTCATGTGGTGTACCTGCTTCACCACATAT [XGTACX_site1288],8.29 ± 0.4
8,TTATTTTTAATATCGGTGCAACAAAAAGGAAAAGAT [GTGCAC_site9482],9.22 ± 0.39
9,TATATATTCATAAAGTGTACATGTTTATATATATAT [XGTACX_site7585],9.72 ± 0.47
10,TATGTATAGATATATACACACTTCTGTGATACGAAA [CACACA_site7003],8.35 ± 0.45
11,CCATAGATATTTTATACACACATATAATATATTAAT [CACACA_site373],8.54 ± 0.62
12,GATGATTCAATTTATGCACACTAAAAATTAATTATA [CACACA_site4308],8.46 ± 0.28
13,AAATAATATATTCCTTGTACTTATTTCAATGAATTC [XGTACX_site7719],8.48 ± 0.45
14,ATAATCTGACAAATGTGTACACATATATATATATAT [XGTACX_site2379],10.3 ± 0.34
15,ACCAAAAGGGGATGTAGTACAATATGATTAGAAGAA [XGTACX_site3773],9.1 ± 0.52
16,AAAATACCCGGACACACACACATATATATATATATT [CACACA_site6137],8.83 ± 0.31
17,TAACTTCAAACAAAATATGGTAAAAGTGGTTGAAAA [CACACA_negctrl_site42],8.68 ± 0.49
18,GATATGATTAACTTATGTTATTCTTGATGGTTTCTT [GTGCAC_negctrl_site411],8.36 ± 0.47
19,TAATTTGTTAAAGGTTCACATATGGTATATACTTCT [XGTACX_negctrl_site292],8.62 ± 0.32

row,Sequence,gcPBM binding intensity (ln)
1,TAATAAGGTTACAACAAACACACAAAGGAATATACA [CACACA_site4089],9.1 ± 0.44
2,TTATAAAACCATGTCATCAACATAGGCACAAAAATG [CACACA_negctrl_site1160],8.6 ± 0.35
3,TATCACAAAATATACTGTACATACAGGCAGTAATAT [XGTACX_site2487],8.71 ± 0.34
4,AAGAATCACCAAATATGTACACACCTTAACATGTTT [XGTACX_site4272],8.85 ± 0.48
5,CCACTGTATGAATGCACACATTCATAGAATTGCTAT [CACACA_site2676],8.79 ± 0.28
6,GATATGTACTAATACACACACATATATATATATATA [CACACA_site1022],10 ± 0.43
7,ATAATTTTTATTTGTACACACATACAGATATATTAT [CACACA_site4701],8.58 ± 0.23
8,GATATAGATATTAATTGTACATATTATTTATTGTTA [XGTACX_site846],8.53 ± 0.36
9,TTCTAAAAAGGGTGTACACAAACGAATGGAAAATAA [CACACA_site5483],9.24 ± 0.32
10,AAATATATATATATATGTACACACACACATATAAAT [XGTACX_site847],8.5 ± 0.3
11,CACACTAAAAGACACACACACACACGCATATAAATA [CACACA_site7874],8.68 ± 0.64
12,TAGTGTAAAAAATACGCATGTGTACAAATATAATAA [TGCATGCA_site498],9.08 ± 0.44
13,ATTAAACATACATATACACACACACCCACCCACCCA [CACACA_site8057],9.56 ± 0.47
14,TTGTAGGAATTTATTTTGACTGATAATTAATACGTT [GTGCAC_negctrl_site46],8.12 ± 0.42
15,AATAATACGTTAAATGTTCTTACAAGTTGGTTTCAT [CACACA_negctrl_site1029],8.54 ± 0.4
16,TAAAGGTGTAAAACTGCATGCTGGAGAAAAGTAAAA [TGCATGCA_site591],9.72 ± 0.49
17,AAAAAAAAAAAAAAGTGTACCTTATTATACTTTAAT [XGTACX_site8439],8.2 ± 0.26
18,AAAAAAAAATTTGTATCACACACGTATTATAAAAAA [CACACA_site6],8.32 ± 0.43
19,ATTATATAATATAATGCATGTGTTAATGAAAAATCT [TGCATGCA_site426],8.7 ± 0.48

row,Sequence,gcPBM binding intensity (ln)
1,TTATGATAACTTTGCACACACTTAGGAAAAGTTATG [CACACA_site6836],8.43 ± 0.27
2,CAAAGCATTTTATCTACACACATATATAAATAAATA [CACACA_site7500],8.27 ± 0.47
3,ATCTTTATTTTTAGCGCACACATAAAATAATAATAA [CACACA_site3458],8.82 ± 0.28
4,TGATGCAAGATATATACACACATATAAATATAAATA [CACACA_site7429],8.5 ± 0.47
5,TTTTTTTTTTTATGTGCACACAAAAGATGCTTATAT [CACACA_site2347],9.01 ± 0.16
6,TATTTTAACTTTTTTTCCTTTATTCATTTTTTTTTC [CACACA_negctrl_site971],8.59 ± 0.57
7,ATAATTCATGTTTAGTGTACAAAAAATTAAAGCAAC [XGTACX_site8891],8.97 ± 0.28
8,TATATATATATAATATGTACATATATATATTCTTAA [XGTACX_site6154],9.58 ± 0.31
9,AAATAATTTATATGTAGTACATGTTGTAGATAATTT [XGTACX_site1031],8.69 ± 0.21
10,ATGCATCATTTATTTGCACACCTATTATATACTTTT [CACACA_site2097],8.83 ± 0.21
11,TGATTATATAAAAAAAAGAAAAAAAAAAAAAAAAAA [CACACA_negctrl_site819],8.07 ± 0.33
12,TAAAAAAAAAAAAAAAGTACCCATACTATATTACAT [XGTACX_site946],8.13 ± 0.46
13,GTAAAAATTTCATATTCACACACAAAAAAAAAAAAT [CACACA_site8457],8.69 ± 0.49
14,TTACTAAACTTATATGTACACACATATAACATTAAT [CACACA_site8710],8.64 ± 0.32
15,AAGAATTTTACAAAATGTACTTATGTTTTGTTTTAC [XGTACX_site5632],8.38 ± 0.32
16,AGTAGTCTGGAGAAGAGTACATAGTATCTGATAACC [XGTACX_site2044],8.8 ± 0.42
17,ATTGAAAATTATTTACCTTCTTTGAAAGAACAAATG [CACACA_negctrl_site1736],8.21 ± 0.44
18,AAAAATAAAATGATGGTGCACATAAAGTATGGTTAC,9.38 ± 0.23
